Experimental data from PubChem BioAssay AID445 (National Center for Advancing Translational Sciences (NCATS), 2006).
The campaign covered roughly 110,000 compounds. About 40 (0.04%) were called active. The shares of active, inactive and inconclusive entries below differ from those in the screen. The call rests on the fitted dose curve; in most records, active means well fitted curve in the direction sought with a large enough effect in the signal ratio (not every such curve was filed as active); inconclusive means small, poorly fitted or top-dose-only effect, or a change in a side signal; inactive means flat fitted curve, though single readings scatter; the % refers to the signal ratio. A potency beside an inconclusive call is a rough fit, not a confirmed value.

Test: IkB Signaling;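 on IkBa stabilization activation: 0% = basal untreated cells and 100% = reference inhibitor full response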
Details: ABC-DLBCL IkBa-CBG/CBR dual luciferase ratio (green luciferase fused to IkBa over red control in OCI-Ly3 lymphoma cells), 4 h; IkBa stabilization activation: at 57.1 µM (top of the series), scaled: untreated 0%, proteasome inhibitor 100% unless noted
In short: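 Curves were fitted separately to fusion (green), unfused (red) and ratio luminescence, then classed by r2, magnitude and activity. Cells: OCI-Ly3, 4 h compound plus doxycycline at 37C; 10 uM MG-132 defined full response.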
Potency means the concentration at half of the fitted maximal effect.

**Q.** Which IkBa stabilization activation does the source give for `CCOc1ccc(-n2c(=O)c3c4c(sc3n(CC(=O)Nc3cccc(C(F)(F)F)c3)c2=O)CCCCC4)cc1` here?
**A.** The IkBa stabilization activation was inconclusive: 2.84% [signal inhibitor].

**Q.** With `COc1ccccc1NC(=O)C(Cc1ccccc1)NS(=O)(=O)c1ccc2c(c1)c(=O)n(C)c(=O)n2C` (stereo not drawn) as the compound, how does the IkBa stabilization activation read?
**A.** The IkBa stabilization activation was inconclusive: 1.51% [signal inhibitor].

**Q.** For `O=C(NCc1ccc(F)cc1)c1c(O)nc2ccccn2c1=O`, which IkBa stabilization activation is on record?
**A.** Its IkBa stabilization activation is inconclusive: 0.759% [signal inhibitor].

**Q.** With `CCCCOc1cccc(NC(=O)CSc2nnc(C)s2)c1` as the compound, how does the Potency read?
**A.** Its Potency is inconclusive: 39.8 µM [signal inhibitor].

**Q.** For `COc1ccc(Oc2ncc3nc(-c4cc(F)cc(F)c4)c(=O)n(C[C@H]4CCCO4)c3n2)cc1`, which IkBa stabilization activation is on record?
**A.** Its IkBa stabilization activation is inactive: -0.326% [at 11.4 µM, scaled: untreated 0%, proteasome inhibitor 100%].

**Q.** With `CN(Cc1ccccc1)c1ncnc2onc(-c3ccc(F)cc3)c12` as the compound, how does the IkBa stabilization activation read?
**A.** Its IkBa stabilization activation is inconclusive: -0.0045% [signal inhibitor].

**Q.** For `COCCn1c(=O)c(-c2cc(F)cc(F)c2)nc2cnc(OC)nc21`, which IkBa stabilization activation is on record?
**A.** The IkBa stabilization activation was inactive: -0.711% [at 11.4 µM, scaled: untreated 0%, proteasome inhibitor 100%].

**Q.** Which IkBa stabilization activation does the source give for `COc1ccc(NC(=O)COc2ccc(S(=O)(=O)NC3CCCCC3)cc2)cc1OC` here?
**A.** The IkBa stabilization activation was inconclusive: 4.27% [signal inhibitor].

**Q.** Which “IkBa stabilization activation” value does the source give for `COc1ccc(NC(=O)C2CCC(CNS(=O)(=O)c3ccc(Br)s3)CC2)cc1OC` (stereo not drawn) here?
**A.** The value was inactive: 1.95%.

**Q.** For `S=C(c1ccc(N2CCCC2)cc1)N1CCCCC1`, which “IkBa stabilization activation” value is on record?
**A.** The value was inactive: 7.45%.

**Q.** With `CC(NC(=O)CCNS(=O)(=O)c1cccc2nsnc12)c1ccccc1` (stereo not drawn) as the compound, how does the IkBa stabilization activation read?
**A.** The IkBa stabilization activation was inconclusive: 7.56% [signal inhibitor].

**Q.** Which IkBa stabilization activation does the source give for `Cc1ccc2c(=O)cc(CSCC(=O)Nc3nnc(C)s3)[nH]c2c1` here?
**A.** The IkBa stabilization activation was inconclusive: 1.59% [signal inhibitor].

**Q.** Which “IkBa stabilization activation” value does the source give for `Cn1c(=O)c2c(SCc3ccccn3)nc(C3CC3)nc2n(C)c1=O` here?
**A.** The value was inactive: 1.72%.

**Q.** Which Potency does the source give for `O=C(Nc1cccc(Cl)c1)c1cnc[nH]1` here?
**A.** Its Potency is inconclusive: 20 µM [signal inhibitor, single point].

**Q.** For `O=C(CN1C(=O)COc2ccc(S(=O)(=O)N3CCOCC3)cc21)N1CCN(c2ccccc2)CC1`, which IkBa stabilization activation is on record?
**A.** The IkBa stabilization activation was inconclusive: 1.31% [signal inhibitor].

**Q.** For `Cc1c(C(=O)OC2CCCC2)[nH]c2c1C(=O)CC(c1ccco1)C2` (stereo not drawn), which Potency is on record?
**A.** The Potency was inconclusive: 2.51 µM [signal activator, full curve].

**Q.** With `COc1ccc(CCNC(=O)C2CCCN(c3nc4c(C)cc(C)cc4s3)C2)cc1OC` (stereo not drawn) as the compound, how does the IkBa stabilization activation read?
**A.** Its IkBa stabilization activation is inconclusive: 3.43% [signal inhibitor].

**Q.** For `CCOC(=O)c1c(NC(=O)c2cc(C(C)C)on2)sc(C)c1C`, which “IkBa stabilization activation” value is on record?
**A.** Its value is inactive: -1.8%.
